Results: PMC4336329 (PLoS ONE, 2015)
Screen size: about 310,000 compounds; about 2,200 (0.71%) showed an effect of 50% or more. Effects have a minus sign here. This is one part of the list.

target: human ether-à-go-go-related gene (hERG) potassium channel (human, UniProt Q12809); experiment: primary screen, population patch clamp on CHO cells stably expressing hERG
Sequence (Q12809 whole entry, looked up): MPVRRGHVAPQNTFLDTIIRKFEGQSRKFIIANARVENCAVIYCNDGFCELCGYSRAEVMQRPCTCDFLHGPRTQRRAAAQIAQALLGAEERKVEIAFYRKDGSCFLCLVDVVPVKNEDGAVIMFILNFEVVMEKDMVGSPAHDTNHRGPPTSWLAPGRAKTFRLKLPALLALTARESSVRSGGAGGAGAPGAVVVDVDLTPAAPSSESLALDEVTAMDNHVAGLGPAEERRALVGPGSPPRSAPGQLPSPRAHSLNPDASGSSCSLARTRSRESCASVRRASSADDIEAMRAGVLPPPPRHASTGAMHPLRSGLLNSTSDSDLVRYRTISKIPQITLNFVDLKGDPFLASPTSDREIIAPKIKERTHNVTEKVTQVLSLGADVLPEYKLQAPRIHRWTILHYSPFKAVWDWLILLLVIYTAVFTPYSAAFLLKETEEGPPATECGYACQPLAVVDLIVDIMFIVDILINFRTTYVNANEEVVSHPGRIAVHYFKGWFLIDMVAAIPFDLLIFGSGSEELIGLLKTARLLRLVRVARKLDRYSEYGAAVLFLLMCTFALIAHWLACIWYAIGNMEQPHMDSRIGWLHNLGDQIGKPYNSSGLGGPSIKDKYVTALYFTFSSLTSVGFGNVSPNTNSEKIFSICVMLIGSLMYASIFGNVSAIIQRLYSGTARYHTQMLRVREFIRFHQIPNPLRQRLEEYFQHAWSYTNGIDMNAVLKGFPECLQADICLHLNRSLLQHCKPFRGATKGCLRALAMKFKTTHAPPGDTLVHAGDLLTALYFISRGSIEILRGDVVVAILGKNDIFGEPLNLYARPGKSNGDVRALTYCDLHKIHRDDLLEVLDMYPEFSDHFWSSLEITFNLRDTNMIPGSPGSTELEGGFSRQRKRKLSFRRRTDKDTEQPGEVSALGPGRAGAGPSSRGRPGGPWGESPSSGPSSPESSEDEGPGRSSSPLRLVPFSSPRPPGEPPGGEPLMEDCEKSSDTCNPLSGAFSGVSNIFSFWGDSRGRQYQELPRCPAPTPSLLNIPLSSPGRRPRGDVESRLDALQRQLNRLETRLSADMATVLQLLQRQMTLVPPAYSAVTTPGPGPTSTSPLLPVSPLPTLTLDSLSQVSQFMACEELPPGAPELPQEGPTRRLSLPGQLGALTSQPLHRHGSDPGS

SMILES | hERG current change (%, negative = inhibition) at 1uM
O=C1OCCC1Sc1nnc(-c2cccs2)n1Cc1ccccc1 (stereo not shown) | -4.67%
O=C(Cc1cccs1)N1CCCC(c2nc(-c3ccc(S(=O)(=O)N4CCCC4)cc3)no2)C1 (stereo not shown) | -5.87%
CCOC(=O)C1=C(C)N=c2s/c(=C\c3ccc(OC(C)=O)cc3)c(=O)n2C1/C=C/c1ccccc1 (stereo not shown) | 9.01%
CCOC(=O)c1c(NC(C)=O)sc2c(OC)c(Br)ccc12 | 5.49%
COc1ccc(OC)c(S(=O)(=O)Nc2cccc3c(O)cccc23)c1 | 12.9%
Fc1ccc(-c2csc3ncnc(N4CCN(Cc5ccccc5)CC4)c23)cc1 | 11.9%
CCCCc1nnc(NC(=O)CCS(=O)(=O)c2ccc(Cl)cc2)s1 | -3.33%
Cc1c(Cl)cnc(NC(=O)CSc2nnc(C)n2Cc2ccccc2)c1Cl | 0.368%
Cc1ccc(SC(c2ccccc2)C(Cn2cncn2)C(=O)c2ccccc2)cc1 (stereo not shown) | 14.3%
CCCNC(=O)c1cc(-c2ccc(OC)cc2)n(CCCOC)c1C | 9.94%
O=C(CSc1nnc(CNC(=O)c2ccccc2F)o1)Nc1ccc2c(c1)OCCO2 | 11.3%
CC(=O)Nc1ccc(NC(=O)c2cccc3ccccc23)cc1 | 6.38%
c1ccc(N2CCN(Cc3ccc4c(c3)OCO4)CC2)nc1 | 11.6%
COc1ccc(SC[C@H](C)CN2CC[C@H](C)CCC2=O)cc1 | 9.24%
CCCC(=O)NC(=S)Nc1ccccc1C(=O)OC | 12.4%
Cc1ccccc1-c1nc(CS(=O)CC(=O)NC2CCCC2)c(C)o1 (stereo not shown) | 17.1%
COc1cc(/C=C2\C(=N)N3N=C(S(C)(=O)=O)SC3=NC2=O)ccc1OC(=O)c1cccs1 | -0.945%
O=C(COC(=O)CSc1nnc(-c2ccc(Cl)cc2)o1)NCc1ccc2c(c1)OCO2 | 4.3%
CCC(NC(=S)NCc1ccc(F)cc1)c1ccccc1 (stereo not shown) | 5.49%
Cc1ccc(NC(=O)CCNS(=O)(=O)c2ccccc2F)cc1S(=O)(=O)N1CCOCC1 | -4.28%
Cc1c(-c2ccccc2)[n+](=O)c2c(n1[O-])CCCC2 | 11.5%
Oc1ccc(CNc2ccccc2O)cc1 | 1.86%

SMILES | hERG current change (%, negative = inhibition) at 1uM
CC(=O)Nc1cccc(C(=O)NC2CCCc3c2cnn3-c2cc(C)cc(C)c2)c1 (stereo not shown) | 12.3%
Cc1cccc(C(=O)Nc2ccccc2C(=O)NCc2cccnc2)c1 | 1.78%
CCOc1ccc(NC(=O)Nc2cc(-c3ccccc3)sc2C(=O)OC)cc1 | 0.713%
O=C(NC1=NCCS1)C1CC2CCC1C2 (stereo not shown) | 4.15%
CC(OC(=O)c1ccc(-c2ccc([N+](=O)[O-])cc2)o1)C(=O)NC(N)=O (stereo not shown) | -1.94%
CC(C)Cc1nnc(NC(=O)CCc2ccccc2)s1 | 11.3%
Cc1cc(C)c(C#N)c(SCC(=O)Nc2nnc(-c3ccccc3)s2)n1 | 12%
COc1ccc(CCNC(=O)CCc2ccc(S(=O)(=O)NCC(C)C)cc2)cc1 | 13%
Nc1nnn(Cc2ccccc2)n1 | 14%
Cc1nnc(NC(=O)COc2ccc3c(C)cc(=O)oc3c2)s1 | 4.06%
O=C(c1cc(-c2ccccc2O)on1)N1CCc2ccccc2C1 | 9.27%
CCN(CC)S(=O)(=O)c1ccc(S(=O)(=O)N2CCN(C(=O)c3ccco3)CC2)cc1 | 7.66%
Br.O=C(CN1C2=NCCN2c2ccccc21)c1cccs1 | 6.89%
CCN(CC)CCNC(=O)CCn1nc(-c2ccc(Cl)cc2)ccc1=O | 12%
O=c1[nH]c(=S)[nH]c(O)c1/C=N/N1CCOCC1 | 12.6%
Cc1nc2cc(C(=O)OCC(=O)NC34CC5CC(CC(C5)C3)C4)ccc2n1-c1ccccc1 | 9.35%
COc1cccc(C(=O)NCCS(=O)(=O)NCc2ccc(Cl)cc2)c1 | -3.65%
CCCCc1nc(Cl)c(CO)n1Cc1ccc(-c2ccccc2-c2nnn[n-]2)cc1.[K+] | 3.74%
O=C(NCCCN1CCOCC1)c1ccc2c(=O)n(Cc3ccc(Cl)cc3)c(=S)[nH]c2c1 | 7.13%
O=c1cc(CSCc2ccc(Cl)cc2)[nH]c(=O)[nH]1 | 0.0675%
Cc1ccccc1Nc1nnc(SCC(=O)c2cc3ccccc3o2)s1 | 5.59%
Cc1nnc(NC(=O)Nc2ccc(Cl)c(Cl)c2)s1 | 14.3%

SMILES | hERG current change (%, negative = inhibition) at 1uM
COc1ccc(S(=O)(=O)Nc2ccccc2C(=O)NCc2ccco2)cc1 | -2.83%
CCc1nnc(NC(=O)C2CCCN2C(=O)Nc2ccc(Cl)cc2)s1 (stereo not shown) | 8.17%
COc1cc(/C=C(\C#N)C(=O)NCCc2ccccc2)cc(OC)c1O | 19.2%
COc1ccc(N2C(=O)CC(Sc3nnnn3-c3ccc(F)cc3)C2=O)cc1 (stereo not shown) | 2.13%
O=C(Nc1ccc2c(c1)N(S(=O)(=O)c1cccs1)CCC2)c1c(F)cccc1Cl | 11.2%
O=C(Nc1ccccc1)N1CCN(c2nc3ccccc3s2)CC1 | -17.4%
S=C(NCCCc1ccccc1)Nc1ccc(Br)cc1 | 17.2%
O=C1c2nc3cc(-c4ccco4)[nH]n3c(=O)c2CN1Cc1ccccc1 | 10.9%
COC(=O)CSc1nnc(C)n1-c1cccc(C#N)c1 | 0.597%
COc1ccccc1-c1n[nH]c2c1[C@H](C)CC[C@H]2C(C)C | 14.4%
O=C(Nc1ccccn1)N1CCOCC1 | 13.1%
Cc1cccc(N(Cc2ccccc2)C(=O)C2CCN(C(=O)c3ccccc3C)CC2)c1 | -1.04%
COc1ccc(C2OCC3(CO2)SC(=O)NC3=O)cc1 (stereo not shown) | 3.3%
CC1(C)SC(=S)N(NC(=O)Nc2cccc3ccccc23)C1N(O)C(=O)Nc1ccccc1 (stereo not shown) | 7.48%
CCCn1cc(S(=O)(=O)c2ccccc2)c(=O)c2cc(OC)c(OC)cc21 | 10.1%
O=C(c1cc(-c2ccncc2)nc2ccc(Cl)cc12)N1CCN(Cc2ccc3c(c2)OCO3)CC1 | 14.5%
Cc1cc(=O)[nH]c(SCC(=O)Nc2ncc(S(=O)(=O)c3ccc([N+](=O)[O-])cc3)s2)n1 | 14.9%
CCOc1ccccc1/C=N/Nc1ccnc(=O)[nH]1 | 16.1%
CC(C)Cn1nc(C(=O)Nc2cccc(S(=O)(=O)N3CCCC3)c2)c2ccccc2c1=O | 8.59%
Cc1nc2ncnn2c(N2CCN(C(=O)c3cccc(F)c3)CC2)c1Cc1ccccc1 | -17.8%
CCc1ccc(NC(=O)CNCc2ccc(OC)c(OC)c2)cc1.O=C(O)C(=O)O | 9.83%
Cc1ccc(NC(=O)c2cn(CCC#N)nc2-c2cccs2)c([N+](=O)[O-])c1 | 8.93%

SMILES | hERG current change (%, negative = inhibition) at 1uM
O=C(NNC(=S)Nc1ccccc1)NNC(=S)Nc1ccccc1 | 12.1%
CCc1cccc(C)c1NC(=O)c1cccc(N(C)C)c1 | 0.591%
CN1CCN(C(=O)c2ccc(COc3ccc(C(C)(C)C)cc3)o2)CC1 | 0.586%
CC(=O)Nc1ccc(S(=O)(=O)NCCC(=O)OCc2csc(CC(=O)Nc3ccccc3C)n2)cc1 | 13.1%
CC(=O)OC(C(=O)n1nc(C)cc1C)c1ccccc1 (stereo not shown) | 6.7%
CC(CNc1nc2ccc(Cl)cc2n2cnnc12)c1ccccc1 (stereo not shown) | 17.4%
CCC1CCCCN1C(=O)COC(=O)c1ccc(Br)o1 (stereo not shown) | 11.6%
O=C(/C=C/NCc1ccc(F)cc1)c1ccccc1 | 5.72%
Fc1cccc(F)c1CN1CCN(c2ccc(Cl)cc2)CC1 | 16.7%
O=C(CSc1ccc(-c2ccc(F)cc2)nn1)N1CCCc2ccccc21 | 11%
COc1cccc(CC(Cc2nc3ccccc3[nH]2)c2nc3ccccc3[nH]2)c1 (stereo not shown) | 11.2%
COc1ccc(N2C(=O)C(C)C(Cc3ccc(C)cc3)C2=O)cc1 (stereo not shown) | 13.9%
CCOC(=O)c1c(C)[nH]c(C)c1S(=O)(=O)N1c2ccccc2CC1C (stereo not shown) | 18.2%
CCCCCOc1ccc(C(=O)NCC2(c3ccccc3)CCOCC2)cc1 | -13.5%
COC(=O)COc1ccc(S(=O)(=O)N2CCCCCC2)cc1C | 5.29%
CCOc1ccc(N(CC(=O)Nc2cccc(Cl)c2)S(=O)(=O)c2c(C)noc2C)cc1 | 10%
Cc1onc(-c2ccccc2)c1C(=O)Nc1sccc1C#N | 10.8%
Cc1cc(NC(=O)COC(=O)c2c(Cl)cccc2Cl)no1 | -2.04%
CCCCNc1nnc(SCC(=O)N2CCN(S(=O)(=O)c3ccc4ccccc4c3)CC2)s1 | 6.85%
O=C(O)C(=O)O.Oc1ccc(Cl)cc1CNCC1CCCO1 (stereo not shown) | 1.35%
CC1CCN(CCC(=O)N/N=C/c2ccc([N+](=O)[O-])cc2)CC1 | -41.1%
CCOC(=O)NS(=O)(=O)c1ccc(CCNC(=O)c2cc(C)on2)cc1 | 4.38%
